Measurements: ChEMBL document CHEMBL4888484, “Replenishing the malaria drug discovery pipeline: Screening and hit evaluation of the MMV Hit Generation Library 1 (HGL1) against asexual blood stage Plasmodium falciparum ,using a nano luciferase reporter read-out” (2022)
In all, about 150,000 compounds went through this assay and about 540 (0.36%) showed an effect of 50% or more. Some of the results follow.

The compounds below were run on Plasmodium falciparum (assay: Primary screen in NF54 nanoGlo assay, in single point, at 2uM, 72h; a lower Z score goes with more inhibition). Conditions: timepoint 72 hour.
Format: functional, Erythrocyte

Row | Structure (SMILES) | % Inhibition [%] | Z score
1 | CC1CCCN(c2ccc(C#N)cc2Br)C1CN (stereo not drawn) | -5 | 0.96
2 | COc1cccc(CN2CC[C@H]3COC(=O)N3c3ccc(OC)cc3C2)c1 | 9 | -1.08
3 | CCC(C)C(NC(=O)Nc1ccc(Cl)cc1)C(=O)O (stereo not drawn) | 0 | 0.02
4 | CCCN(CC1CC1)C(=O)[C@@H]1Cc2[nH]cnc2C2(CCCC2)N1 | -5 | 1.01
5 | Cc1nc(C)n(CCCNC(=O)[C@H](C)n2cc(Cl)cn2)n1 | 14 | -2.65
6 | O=C(c1csc(=O)[nH]1)N1CCc2ccc(F)c(F)c2C1 | -1 | 0.18
7 | CCC(=O)Nc1ccc2c(c1)cc(C(=O)NCCc1ccccn1)n2Cc1cccc(F)c1 | -4 | 0.51
8 | CCCCS(=O)(=O)N1CC[C@H](CC(=O)NCc2ccccc2)C1 | 35 | -5.13
9 | CCC(CC)[C@H](NC(=O)CS(=O)(=O)C(C)C)c1cccs1 | -15 | 2.93
10 | Cc1cc(CN2C[C@@H](C)N(Cc3cc(C)ncn3)[C@@H](C)C2)ncn1 | -6 | 1.16
11 | O=C1N(C/C=C/c2ccccc2)c2ccccc2[C@@]1(O)c1c[nH]c2ccccc12 | -5 | 0.93
12 | Cc1cc(O[C@H]2CCN(C(=O)c3nc4ccccc4s3)C2)cc(=O)n1C | -1 | 0.09
13 | CC(C)c1cc(CN2CC[C@H](c3ccnc(-c4cccc(O)c4)c3)C2)on1 | -14 | 2.13
14 | Cc1cccc(S(=O)(=O)N2CCN(Cc3nc4cc(-c5ccccc5)ccc4o3)CC2)c1 | -6 | 0.74
15 | CCc1ccc([C@H](C)NC(=O)c2nnn3c2c(=O)[nH]c2cc(C)ccc23)cc1 | -2 | 0.33
16 | CCCCNC(=O)[C@H]1CNC[C@@H](COc2ccc3c(c2)CCC3)C1 | -6 | 0.75
17 | COCCN(CCC(=O)NCCN1CCOCC1)c1nc(-c2ccco2)nc2cc(Cl)ccc12 | -1 | 0.23
18 | O=C(CC[C@@H]1CNC(=O)[C@@H]2C[C@H](NC(=O)c3ccc(F)c(Cl)c3)CN12)NCc1ccccc1 | 31 | -3.48
19 | CN(CCN1CCCCC1=O)c1nc2c(c(=O)[nH]1)Cc1ccccc1OC2 | -1 | 0.11
20 | Cc1ccsc1-c1cccc(C(=O)N2CCC[C@H](N)CC2)c1 | 8 | -0.82
21 | Cc1noc(C[C@H]2CCCN(Cc3nnnn3C(C)(C)C)C2)n1 | -3 | 0.62

Row | Structure (SMILES) | % Inhibition [%] | Z score
22 | CN(C)c1cccc(CNc2ncc(Br)cn2)n1 | -8 | 0.71
23 | O=S(=O)(c1ccccc1)N1CCN(Cc2cc3c(cc2Br)OCCO3)CC1 | 9 | -1.47
24 | Cc1cnc([C@H](C)NC(=O)c2cc(C)c(Br)cc2C)o1 | -13 | 1.43
25 | Cc1nc(-c2ccc(N3CCN(C(=O)NCc4cccs4)CC3)nc2)no1 | -8 | 1.42
26 | CCC(=O)N1CCCN(S(=O)(=O)C[C@H]2CCC[C@@H]2C)CC1 | -3 | 0.57
27 | CC1=C(CCN2CC[C@H](NC(=O)c3cnccn3)[C@@H](O)C2)C(C)(C)CCC1 | -13 | 1.65
28 | CC(C)[C@H](Cn1nccn1)NS(=O)(=O)c1ccc(Cl)s1 | -1 | 0.2
29 | CC(CNC(=O)CCC1CCCO1)CN(C)C(=O)OC(C)(C)C (stereo not drawn) | -3 | 0.31
30 | O=C(C[C@@H]1COC2(C1)CN(S(=O)(=O)c1ccc3c(c1)CCC3)C2)NCc1ccncc1 | 5 | -0.84
31 | CCOC(=O)N1CCC(NC(=O)[C@H]2CCCN(S(=O)(=O)c3cccc4nonc34)C2)CC1 | 0 | 0.07
32 | Cc1ccc(-c2nc(C#N)c(S(=O)(=O)N3CCN(CCO)CC3)o2)cc1 | 1 | -0.08
33 | COC1(CNC(=O)N2CCC[C@H]2c2ccncc2)CCOCC1 | 5 | -0.59
34 | O=C(c1cn(C2CCCCC2)nn1)N1CCC[C@H](OCc2ccccc2)C1 | -5 | 0.75
35 | O=C1CN(CCn2cc(Cl)cn2)CCN1CCc1ccccc1 | -7 | 1.18
36 | CN(C)C(=O)C1C[C@@H]2OCC[C@@H]2N1S(=O)(=O)CCC1CCCCC1 (stereo partly drawn) | 2 | -0.34
37 | COc1cccc(NS(=O)(=O)c2c(C)[nH]c(C)c2-c2nc(C3CC3)no2)c1 | -9 | 1.85
38 | Cc1cccc(Cn2ccc3ccn(CC(=O)Nc4ccc(F)c(F)c4)c(=O)c32)c1 | -22 | 2.56
39 | CN(C)C(=O)c1ccc(CN2CC[C@@H]3COC(=O)N[C@H]3C2)[nH]1 | -1 | 0.16
40 | CCCc1occc1C(=O)N[C@@]12CCCC[C@@H]1NC(=O)C2 | -13 | 1.5
41 | CC(=O)n1ccc(C(=O)Nc2ccc(Cl)c(Cl)c2)n1 | -12 | 1.57
42 | CCC1C(C)CCN1C(=O)c1cccc(NCc2cncs2)c1 (stereo not drawn) | -20 | 2.19

Row | Structure (SMILES) | % Inhibition [%] | Z score
43 | Cc1nc(N2CCN(C(=O)C3CCCC3)CC2)c2cnn(-c3ccccc3Cl)c2n1 | -4 | 0.65
44 | CC(C)(C)c1cnc(COCc2ncc[nH]2)o1 | -2 | 0.34
45 | CC(C)n1cnc(C(=O)N2CCCNC(=O)[C@@H]2Cc2ccccc2)c1 | -13 | 1.29
46 | O=C(O)c1cccc(C(=O)Nc2cccc3[nH]ccc23)n1 | -7 | 1.12
47 | C#CC(CC)(CC)NC(=O)c1c(C)noc1C | -15 | 1.81
48 | O=C(COc1cccc(-c2noc(-c3ccccc3F)n2)c1)Nc1cccc(Cl)c1 | 1 | -0.07
49 | CCCN(CCC)S(=O)(=O)c1cc(-c2nc(C)c(C)s2)sc1C | 0 | 0.04
50 | C#CCN(CC(F)(F)F)S(=O)(=O)c1cnn(C(C)C)c1 | -8 | 0.85
51 | C[C@@H]1CN(c2nccn3nnnc23)C[C@H](C)N1CC(F)(F)F | 2 | -0.36
52 | CN(C)c1ccnc(CNC(=O)C2CCCCC2)n1 | -12 | 1.83
53 | COc1cccc(CS(=O)(=O)c2cccs2)n1 | -7 | 0.76
54 | CC(NC(=O)Nc1ccccc1)C(c1cccs1)N1CCCC1 (stereo not drawn) | 6 | -0.89
55 | Cc1cc(C)cc(N(C)CC(=O)N2CCNC2=O)c1 | -3 | 0.51
56 | COCCN1CC2(CCC1=O)CCN(C(=O)[C@@H](c1ccccc1)C(C)C)CC2 | -10 | 1.12
57 | C[C@@H](NS(=O)(=O)c1ccc2c(c1)OCCO2)c1nnc2n1CCCCC2 | -41 | 4.8
58 | Cc1ccc(S(=O)(=O)NC2CCC(C)CC2C)o1 (stereo not drawn) | 34 | -3.9
59 | CCn1c(=O)ccc2c(OC)ncnc21 | -11 | 1.85
60 | Cn1cccc1C(=O)N1CCC[C@@H]1CF | -13 | 1.48
61 | CN1CCCN(C(=O)C(=O)Nc2ccc(Cl)c(Cl)c2)CC1 | -1 | 0.26
62 | Cc1ccccc1C(=O)N1CCOC2(CCS(=O)(=O)CC2)C1 | -27 | 2.86
63 | Cc1nc(CNC(=O)NC2CCCC2)cs1 | -10 | 1.37

Row | Structure (SMILES) | % Inhibition [%] | Z score
64 | C#C[C@@H]1COCCN1C(=O)c1ccncc1F | -6 | 1.15
65 | CCO[C@@H](C)c1nc(Cc2nc(CS(=O)(=O)c3ccccc3)no2)cs1 | 0 | 0
66 | CCCn1ncnc1Cn1nc(C)c(C)c(C#N)c1=O | 9 | -1.17
67 | Cc1ccc(F)c([C@@H](CC(=O)NCCN2CCOCC2)c2c[nH]c3ccc(Cl)cc23)c1 | 11 | -1.37
68 | CCN(CCC(=O)NCCOC)C(=O)c1cc2n(n1)CCCN(Cc1ccc(C)cc1)C2=O | -10 | 1.92
69 | CN(C)CCOc1ccc(CNc2ccnc(C3CC3)n2)cc1 | 9 | -1.16
70 | O=C1OC2(CCN(C(=O)c3cccc(C(F)(F)F)c3)CC2)c2ccccc21 | -14 | 2.75
71 | CC(C)(C)S(=O)(=O)CC(=O)N(C1CCCC1)C1CCCC1 | 0 | 0.04
72 | COCCNc1nc(-c2ccc3c(c2)OCO3)cc(-c2c(C)nn(C)c2C)n1 | -10 | 1.84
73 | CN(C)C(=O)Cn1c(=O)n(CCc2ccccc2)c2ccc(C(=O)O)cc21 | 2 | -0.32
74 | Cc1nn(C)c(C)c1S(=O)(=O)N1CCC(n2ccnn2)CC1 | -18 | 2.83
75 | CN1C(=O)Cc2cc(-c3ccc4c(c3)CCN4)cnc21 | -4 | 0.68
76 | COc1ccccc1-n1nc(Cc2ccccc2)n(CC(=O)N[C@@H](C)CO)c1=O | -5 | 0.91
77 | Cc1ccsc1-c1c(-c2ccccc2)ncn1CCF | -13 | 1.64
78 | CC(C)(C)NC(=O)NCCc1ccoc1 | -3 | 0.43
79 | CC(=O)N1CCCC(C(=O)N2CC(C)C2c2ccccc2)C1 (stereo not drawn) | 6 | -1.03
80 | CCO[C@H]1C[C@@H](O)C12CCN(Cc1nnc(C3CC3)o1)CC2 | 10 | -1.82
81 | COC[C@H](NC(=O)c1c(C)[nH]c(C)cc1=O)c1ccccn1 | -13 | 2.32
82 | CCc1noc(C(C)N(C)CC(C)c2nccs2)n1 (stereo not drawn) | -16 | 2.06
83 | COCn1nccc1S(=O)(=O)N1CC(F)(F)C1 | -11 | 1.66
84 | CC(C)=CCO[C@H]1COCC[C@@H]1NC(=O)c1cccnc1 | -5 | 0.67
